The campaign covered roughly 39,000 compounds. About 220 (0.56%) showed activity. The list shows a part of the results.

The results in this text go back to the supplement of paper PMC9446081.
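Also: static incubation at 37 °C against the wild-type strain, values averaged over two biological replicates.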

The test system of the assay is Escherichia coli K-12 BW25113. The assay is described as follows: relative growth (OD600 normalised to plate interquartile mean) (fraction); higher = less growth inhibition, active = 0.2 or less. The note with it: 50 µM; LB; incubation time: overnight (16-24 h).
For the molecule `CN1C(=O)c2cc(NC(=O)C3CCCC3)ccc2OC[C@H]2O[C@H](CC(=O)NCCc3ccncc3)CC[C@@H]21`, the relative growth is inactive: 0.984.

On to `C[C@H](CO)N1C[C@H](C)[C@H](CN(C)Cc2ccc(Oc3ccccc3)cc2)Oc2ccc(NC(=O)C3CC3)cc2C1=O`, for which the relative growth is inactive: 0.964. The value for `O=C(O)Cn1nc2ccccc2n1` was inactive: 1.01. With `OCC(CO)NC1CC(O)(CO)C(O)C(O)C1O` (centres undefined) the figure was inactive: 1.05; with `CCCCn1c(N)c(N(CC)C(=O)Cc2ccc(S(=O)(=O)N3CCOCC3)s2)c(=O)[nH]c1=O`, inactive: 0.976; with `COc1ccc(S(=O)(=O)N(C)C[C@@H]2Oc3ccc(NC(=O)Nc4c(C)noc4C)cc3C(=O)N([C@@H](C)CO)C[C@H]2C)cc1`, inactive: 1.01. Consider `C[C@H]1CN([C@@H](C)CO)C(=O)Cc2cc(NC(=O)Nc3cccc4ccccc34)ccc2O[C@H]1CN(C)C(=O)Nc1ccc(F)cc1`, for which the relative growth was inactive: 1.04. With `C[C@H](CO)N1C[C@H](C)[C@@H](CN(C)C(=O)Nc2ccc(F)cc2)OCCCC[C@H](C)Oc2ccc(NC(=O)c3ccccc3)cc2C1=O` the figure was inactive: 1. The value for `N[C@@H](CN1C=CC(=O)C(=O)C1)C(=O)O` was inactive: 1.01; that for `C[C@H](CO)N1C[C@H](C)[C@@H](CN(C)S(=O)(=O)c2ccc(Cl)cc2)Oc2ccc(NC(=O)Nc3ccc(C(F)(F)F)cc3)cc2CC1=O` was inactive: 0.989.

Turning to `C=CCOC(=O)[C@H]1[C@@H]2C(=O)O[C@@H](c3ccccc3)[C@@H](c3ccccc3)N2[C@@H](c2ccc(OCCOC(=O)[C@H]3C[C@H]4C(=O)N[C@@H](Cc5ccccc5)C(=O)N4[C@H]3c3cccc(OCCO)c3)cc2)[C@]12C(=O)Nc1ccccc12`, the relative growth was inactive: 1.06. The value for `Cc1ccc(-c2ccc3c(c2)O[C@H](CN(C)C(=O)CN(C)C)[C@H](C)CN([C@@H](C)CO)S3(=O)=O)cc1` was inactive: 0.987. The value for `CO[C@H]1CN(C)C(=O)c2cc(NS(=O)(=O)CC(F)(F)F)ccc2OC[C@H](C)N(C(=O)c2ccc3c(c2)OCO3)C[C@@H]1C` was inactive: 0.976; that for `C[C@@H]1CN([C@@H](C)CO)C(=O)c2cc(NC(=O)NC3CCCCC3)ccc2O[C@@H](C)CCCCO[C@H]1CN(C)C(=O)Nc1ccccc1` was inactive: 1.01. With `CCO[C@H]1OC(C(=O)N2CCN(Cc3ccc4c(c3)OCO4)CC2)=C[C@@H](c2ccc3c(c2)OCO3)[C@@H]1CCCO` the figure was inactive: 1.01; with `C[C@@H]1CN([C@H](C)CO)C(=O)c2cc(C#CCN(C)C)cnc2O[C@@H]1CN(C)C(=O)CN1CCOCC1`, inactive: 0.994; with `C[C@H](CO)N1C[C@H](C)[C@H](CN(C)Cc2ccc(-c3ccccc3)cc2)Oc2c(NS(=O)(=O)c3cccs3)cccc2C1=O`, inactive: 1.04. `Cc1ccc(S(=O)(=O)Nc2ccc3c(c2)C(=O)N([C@@H](C)CO)C[C@H](C)[C@H](CN(C)Cc2ccncc2)OCCCC[C@@H](C)O3)cc1`: the relative growth was inactive: 1.02.

For the molecule `O=C(O)CNS(=O)(=O)c1ccccc1`, the relative growth was inactive: 1.01. With `C[C@@H]1CN([C@H](C)CO)C(=O)Cc2cc(NC(=O)C3CC3)ccc2O[C@@H]1CN(C)S(=O)(=O)c1ccccc1` the figure was inactive: 0.953; with `C[C@H]1CN([C@@H](C)CO)C(=O)c2cccc(NC(=O)c3ccc(-c4nccs4)cc3)c2O[C@H]1CN(C)S(=O)(=O)c1cn(C)cn1`, inactive: 0.991; with `C[C@@H]1CCCCO[C@@H](CN(C)Cc2ccc(C(=O)O)cc2)[C@H](C)CN([C@H](C)CO)C(=O)c2cc(NC(=O)NC3CCCCC3)ccc2O1`, inactive: 1.02.

Turning to `C[C@H]1CN([C@@H](C)CO)S(=O)(=O)c2ccc(C#CC3CCCCC3)cc2O[C@H]1CN(C)C(=O)Cc1ccncc1`, the relative growth is inactive: 1.03.

As for `CN1CCN(CC#N)C(=O)C12CCN([C@H]1CCOC1)CC2`, the relative growth was inactive: 0.961. With `COCC(=O)c1ccnn1C` the figure was inactive: 1.05; with `COc1ccc(S(=O)(=O)Nc2ccc3c(c2)CC(=O)N([C@@H](C)CO)C[C@@H](C)[C@@H](CN(C)C(=O)Nc2c(C)noc2C)O3)cc1`, inactive: 1. Turning to `C=CCC[C@@H](Cc1ccc(F)cc1)C(=O)OC[C@@H](Cc1c[nH]c2ccccc12)NC(=O)[C@H](CC=C)CC(=O)N(CCO)Cc1ccccc1`, the relative growth is inactive: 1.06. With `C[C@H]1CN([C@@H](C)CO)C(=O)Cc2cc(NC(=O)C3CC3)ccc2O[C@H]1CN(C)S(=O)(=O)c1ccc(F)cc1` the figure was inactive: 0.954. The value for `Cc1noc(C)c1NC(=O)Nc1ccc2c(c1)C(=O)N([C@@H](C)CO)C[C@@H](C)[C@H](CN(C)C(=O)NC1CCCCC1)OCCCC[C@H](C)O2` was inactive: 1.01; that for `C[C@@H]1CN([C@H](C)CO)C(=O)Cc2cc(NC(=O)NC3CCCCC3)ccc2O[C@H]1CN(C)S(=O)(=O)c1cn(C)cn1` was inactive: 1.03; that for `C[C@@H]1CCCCO[C@H](CN(C)C(=O)Nc2cccc3ccccc23)[C@@H](C)CN([C@H](C)CO)C(=O)c2cc(NC(=O)NC3CCCCC3)ccc2O1` was inactive: 0.985. With `CC(C)NC(=O)N(C)C[C@@H]1Oc2ccc(NC(=O)C3CCCCC3)cc2CC(=O)N([C@@H](C)CO)C[C@@H]1C` the figure was inactive: 1.02; with `Clc1ccccc1Nc1ccc(-c2ccncc2)s1`, inactive: 1.03; with `S=c1[nH]cnc2nc[nH]c12`, inactive: 0.822. Consider `CC(Cn1cnc2c(N)ncnc21)OCP(=O)(O)O` (centres undefined), for which the relative growth is inactive: 0.984.

`C[C@@H]1CN([C@H](C)CO)C(=O)c2cc(NC(=O)Nc3ccccc3)ccc2O[C@@H](C)CCCCO[C@@H]1CN(C)Cc1ccncc1`: the relative growth is inactive: 0.974. The value for `C[C@@H]1CCCCO[C@@H](CN(C)CC2CC2)[C@@H](C)CN([C@H](C)CO)C(=O)c2cc(NC(=O)NC3CCCCC3)ccc2O1` was inactive: 1.06; that for `COc1ccc(NC(=O)N(C)C[C@@H]2OCCCC[C@@H](C)Oc3ccc(NS(=O)(=O)c4ccc(F)cc4)cc3C(=O)N([C@H](C)CO)C[C@H]2C)cc1` was inactive: 1. For `Cc1cccc(S(=O)(=O)N2C[C@@H](O)COC[C@@H]3O[C@H](CC(=O)NCc4ccc5c(c4)OCO5)CC[C@H]32)c1`, the relative growth was inactive: 0.892.
